Laboratory results published in PubChem BioAssay AID1224903 (Bradner/Qi Labs at DFCI, 2016).
The other results are listed elsewhere or left out. Shown are side measurements of this screen, not its main read-out; they come without a call. Most of these compounds were active or inconclusive in the main read-out, so they are no random draw.

target: Chromobox protein homolog 7 (Homo sapiens) (UniProt O95931); test: CBX7 chromodomain binding inhibitors, primary screen, biochemical, AlphaScreen (AID 1224903); conditions: AlphaScreen His6-CBX7 / biotin-H3K27me3 peptide binding; measured here: z-score of CBX7 signal; stronger effect = lower value
Chain of UniProt O95931 (O95931 whole entry, looked up): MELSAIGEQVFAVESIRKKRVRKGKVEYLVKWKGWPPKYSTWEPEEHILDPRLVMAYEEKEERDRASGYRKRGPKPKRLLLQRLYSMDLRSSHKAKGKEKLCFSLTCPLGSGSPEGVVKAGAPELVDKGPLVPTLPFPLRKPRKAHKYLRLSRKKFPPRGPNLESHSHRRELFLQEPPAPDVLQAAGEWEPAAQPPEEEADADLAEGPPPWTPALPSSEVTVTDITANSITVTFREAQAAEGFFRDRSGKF

SMILES	z-score
O=C(CNC1CCCCC1)Nc1c2c(nc3c1CCC3)CCCC2	-8.78
Fc1ccc(C(c2ccc(F)cc2)N2CCN(CCCc3c[nH]c4ccccc34)CC2)cc1	-12.8
CN(C)CC(=O)Nc1c2c(nc3c1CCC3)CCCC2	-10.3
COc1ccc(Nc2nc(N3CCCC3)c3ccccc3n2)cc1	-5.02
c1cncc(-c2nnc3ccc4ccccc4n23)c1	-8.1
Cc1nn(CC(=O)NCCc2c(C)[nH]c3ccc(OCc4ccccc4)cc23)c(C)c1Cl	-7.49
COc1ccc(N2CCC(CNS(=O)(=O)c3cccc(Cl)c3)C2)cc1 (stereo unspecified)	-20.4
COc1ccc(C2Sc3ccccc3NC3=C2C(=O)c2ccccc23)cc1OC (stereo unspecified)	-9.3
CCCCN(C)S(=O)(=O)c1ccc(C(=O)Nc2nnc(C3CC3)o2)cc1	-1.68
Cc1ccccc1Nc1c(-c2ccc(N(C)C)cc2)nc2cccc(C)n12	-5.54
COc1cccc(CNc2ccc3c(c2)nc(C)n3Cc2ccccc2)c1OC	-4.35
Cc1cc(C)cc(NC(=O)CSc2nccn2-c2ccc(Cl)cc2)c1	-2.03
COc1ccc(CCNc2oc(COc3ccc(C)cc3)nc2C#N)cc1OC	-9.41
COC(=O)c1c[nH]n2c(NC3CCCC3)c(-c3ccc(F)cc3)nc12	-0.807
COc1ccc(OC)c(NC(=O)c2c(NCc3cccs3)sc3c2CCCCC3)c1	-8.02
COc1cccc(Nc2nc(-c3ccc(Cl)c(Cl)c3)cs2)c1	-3.98
CN(CC(=O)Nc1c2c(nc3c1CCC3)CCCC2)Cc1ccccc1	-10.1
CCc1ccc(-c2nc(CSCC(=O)NC3CCCCCC3)c(C)o2)cc1	-11.4
Cc1ccc2[nH]c3c(c2c1)CCCC3NCc1ccc(Cl)cc1 (stereo unspecified)	-3.17
COc1ccc(C2NC(C(=O)O)Cc3[nH]cnc32)cc1CSc1nc2ccccc2[nH]1 (stereo unspecified)	-12.3
Cc1ccn2c(Nc3ccccc3C)c(-c3ccccn3)nc2c1	-21.4
Cc1ccc2nc(-c3ccccn3)c(Nc3ccc(F)cc3)n2c1	-17

SMILES	z-score
O=C(CSc1nnc(-c2cccnc2)o1)Nc1ccc(Cl)c(Cl)c1	-0.627
Cc1c(C(=O)NCc2ccccn2)oc2ccc(S(=O)(=O)N3CCC4(CC3)OCCO4)cc12	-5.41
O=C(Nc1ccc2[nH]c(=O)[nH]c2c1)c1ncn[nH]1	-16.1
COc1ccc(CN2C(=O)c3cccnc3C2Nc2ccc(Br)cc2F)cc1 (stereo unspecified)	-10.4
CCOc1cccc(CNc2ccc3[nH]c(=O)[nH]c3c2)c1OCc1ccc(Cl)cc1	-5.87
Cc1nnc(NC(=O)c2ccc(S(=O)(=O)N3CCCc4ccccc43)cc2)o1	-1.28
Cc1ccc(-n2cc(-c3ccc4c(c3)OCO4)nc2SCC(=O)Nc2cc(C)cc(C)c2)cc1	-3.85
COc1cc(C(=O)Nc2nc(-c3ccccn3)cs2)cc(OC)c1OC	-27.5
CC(C)Cc1ccc(-c2csc(Nc3ccc4c(c3)OCO4)n2)cc1	-8.89
COC(=O)c1c[nH]n2c(NC3CCC(C)CC3)c(-c3ccc(OC)c(OC)c3)nc12 (stereo unspecified)	-0.822
COc1cc(Nc2nc(-c3ccc(CC(C)C)cc3)cs2)c(OC)cc1Cl	-5.72
COc1nc(OC)nc(-n2cnc(NC(=O)Nc3ccc(Cl)cc3)n2)n1	-0.848
Cc1cccn2c(Nc3ccc4c(c3)OCCO4)c(-c3ccc(Cl)cc3)nc12	-4.18
CCN(CCNC(=O)c1cc(-c2cccnc2)nc2ccccc12)c1ccccc1	-10.4
CC1CCN(Cc2cc(Cl)c3cccnc3c2O)CC1	-35.2
COc1cc(S(=O)(=O)NCCc2c(C)[nH]c3ccc(C)cc23)ccc1Cl	-0.568
CCN(CC)S(=O)(=O)c1ccc(C(=O)Nc2nnc(C)o2)cc1	-23.8
O=C(NCCCn1ccnc1)c1cc(-c2ccco2)on1	-15.4
COc1ccc(C(NC(=O)CCc2ccccc2)c2ccc3cccnc3c2O)cc1OC (stereo unspecified)	-3.38
COc1ccc(N2CCN(C(c3cccs3)C(C)NS(=O)(=O)c3ccccc3)CC2)cc1 (stereo unspecified)	-6.74
Cc1ccccc1-c1nc(CS(=O)(=O)CC(=O)N2CCC(Cc3ccccc3)CC2)c(C)o1	-13.3
COc1ccc(-c2nc(-c3ccccc3)c(-c3ccc(Oc4ccccc4)cc3)[nH]2)cc1	-2.08

SMILES	z-score
COC(=O)c1c[nH]n2c(NC3CCCCC3)c(-c3ccc(OC)cc3)nc12	-13.5
Cc1cccc(Nc2nc(-c3sc(C)nc3C)cs2)c1	-11
CCC1CCCCN1S(=O)(=O)c1ccc(C(=O)Nc2nnc(C)o2)cc1 (stereo unspecified)	-23.6
CCc1nnc(NC(=O)c2ccc(S(=O)(=O)N3CCCc4ccccc43)cc2)o1	-10.5
CCOC(=O)c1cnc2c(C)cc(C)cc2c1Nc1ccc(N(C)C)cc1	-6.48
COc1ccccc1N1CCN(Cc2cc(Cl)c3cccnc3c2O)CC1	-35.2
COCc1nnc(NC(=O)c2ccc(S(=O)(=O)N(CC(C)C)CC(C)C)cc2)o1	-1.22
Cc1nnc(NC(=O)c2ccc(S(=O)(=O)N(C)Cc3ccccc3)cc2)o1	-25.8
Cc1ccc(-n2ncc3c(NCc4ccccn4)ncnc32)c(C)c1	-0.877
CCC1CCCCN1S(=O)(=O)c1ccc(C(=O)Nc2nnc(-c3ccc(Cl)s3)o2)cc1 (stereo unspecified)	-6.97
Cc1cc(N2CCCCC2)nc2ccc(NC(=O)CCC(=O)N3CCCC(C)C3)cc12 (stereo unspecified)	-22.8
Cc1ccc(Nc2c(-c3ccccn3)nc3cc(C)ccn23)cc1	-21.6
O=C(CC(C(=O)N1CCc2ccccc21)n1ccnc1)NC(c1ccccc1)c1ccccc1 (stereo unspecified)	-13.7
Cc1ccc2oc(-c3cccc(NC(=O)c4ncn[nH]4)c3)nc2c1	-16
O=C(Nc1nnc(-c2ccccc2Cl)o1)c1ccc(S(=O)(=O)N2CCOCC2)cc1	-4.17
CC1CN(S(=O)(=O)c2ccc(C(=O)Nc3nc(-c4ccccn4)cs3)cc2)CC(C)O1 (stereo unspecified)	-23.8
COC(=O)c1c[nH]n2c(NC3CCCC3)c(-c3cccc(OC)c3)nc12	-0.694
CC(C)n1cnc2cc(NCc3ccc(Cl)cc3)ccc21	-17.1
COc1cccc(-c2nnc(NC(=O)c3ccc(S(=O)(=O)N(C)C)cc3)o2)c1	-13
Fc1ccc(-c2cc(C(F)(F)F)n3ncnc3n2)cc1	-6.24
Cc1cccc(C)c1Nc1c(-c2ccccn2)nc2ncccn12	-0.986
O=C(Nc1nnc(-c2ccc(Cl)s2)o1)c1ccc(S(=O)(=O)N2CCCC2)cc1	-10.8
